# Laboratory results: the supplement of paper PMC8728848
# The list shows a part of the results.
# B1: Surfactant Protein D (Human); Neck + Carbohydrate Recognition Domain (NCRD) (Homo sapiens) (protein)
# chain: MLLFLLSALVLLTQPLGYLEAEMKTYSHRTMPSACTLVMCSSVESGLPGRDRDGREGPRGEKGDPGLPGAAGQAGMPGQAGPVGPKGDNGSVGEPGPKGDTGPSGPPGPPGVPGPAGREGALGKQGNIGPQGKPGPKGEAGPKGEVGAPGMQGSAGARGLAGPKGERGVPGERGVPGNTGAAGSAGAMGPQGSPGARGPPGLKGDKGIPGDKGAKGESGLPDVASLRQQVEALQGQVQHLQAAFSQYKKVELFPNGQSVGEKIFKTAQFVKPFTEAQLLCTQAGGQLASPRSAAENAALQQLVVAKNEAAFLSMTDSKTEGKFTYPTGESLVYSNWAPGEPNDNGGSEDCVEIFTNGKWNDRACGEKRLVVCEF
# Tests used:
# Test in all cases: glycan array binding signal (z-score within array); higher = stronger binding
# Conditions in all cases: glycan notation: IUPAC condensed, linker removed; mutation: D325N
# [1] = target: Gal(b1-4)GlcNAc(b1-6)GalNAc
# Summary of the method: (§1)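 Columns mapping to the same glycan were averaged after glycan names were converted to IUPAC-condensed notation. The data come from 3228 arrays in the Consortium for Functional Glycomics database, limited to those with an available protein sequence. Binding is reported as a within-array Z-score averaged across arrays of one protein sequence and across linkers.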
# [2] = target: Gal(b1-4)GlcNAc(b1-6)[Gal(b1-3)]GalNAc
# Summary of the method: as §1
# [3] = target: Gal3S(b1-3)GalNAc
# Summary of the method: as §1
# [4] = target: Gal3S(b1-3)GlcNAc
# Summary of the method: as §1
# [5] = target: Gal3S(b1-3)[Fuc(a1-4)]GlcNAc
# Summary of the method: as §1
# [6] = target: Gal3S(b1-4)Glc
# Summary of the method: as §1
# [7] = target: Gal3S(b1-4)Glc6S
# Summary of the method: as §1
# [8] = target: Gal3S(b1-4)GlcNAc
# Summary of the method: as §1
# [9] = target: Gal3S(b1-4)GlcNAc6S
# Summary of the method: as §1
# [10] = target: Gal3S(b1-4)[Fuc(a1-3)]Glc
# Summary of the method: as §1
# [11] = target: Gal3S4S(b1-4)GlcNAc
# Summary of the method: as §1
# [12] = target: Gal3S6S(b1-4)GlcNAc
# Summary of the method: as §1
# [13] = target: Gal3S6S(b1-4)GlcNAc6S
# Summary of the method: as §1
# [14] = target: Gal4S(b1-4)GlcNAc
# Summary of the method: as §1
# [15] = target: Gal4S6S(b1-4)GlcNAc
# Summary of the method: as §1
# [16] = target: Gal6S(b1-4)Glc
# Summary of the method: as §1
# [17] = target: Gal6S(b1-4)Glc6S
# Summary of the method: as §1
# [18] = target: Gal6S(b1-4)GlcNAc
# Summary of the method: as §1
# [19] = target: Gal6S(b1-4)GlcNAc6S
# Summary of the method: as §1
# [20] = target: GalNAc(a1-3)Gal
# Summary of the method: as §1
# [21] = target: GalNAc(a1-3)GalNAc
# Summary of the method: as §1
# [22] = target: GalNAc(b1-3)Gal
# Summary of the method: as §1
# [23] = target: GalNAc(b1-3)Gal(a1-4)Gal(b1-4)GlcNAc
# Summary of the method: as §1
# [24] = target: GalNAc(b1-3)GalNAc
# Summary of the method: as §1
# [25] = target: GalNAc(b1-4)GlcNAc
# Summary of the method: as §1
# [26] = target: Glc(a1-4)Glc
# Summary of the method: as §1
# [27] = target: Glc(a1-6)Glc(a1-6)Glc
# Summary of the method: as §1
# [28] = target: Glc(b1-4)Glc
# Summary of the method: as §1
# [29] = target: Glc(b1-6)Glc
# Summary of the method: as §1
# [30] = target: GlcA(b1-3)Gal
# Summary of the method: as §1
# [31] = target: GlcA(b1-3)GlcNAc
# Summary of the method: as §1
# [32] = target: GlcA(b1-6)Gal
# Summary of the method: as §1
# [33] = target: GlcNAc(a1-3)Gal(b1-4)GlcNAc
# Summary of the method: as §1
# [34] = target: GlcNAc(a1-6)Gal(b1-4)GlcNAc
# Summary of the method: as §1
# [35] = target: GlcNAc(b1-2)Gal(b1-3)GalNAc
# Summary of the method: as §1
# [36] = target: GlcNAc(b1-2)Man(a1-3)[GlcNAc(b1-2)Man(a1-6)]Man(b1-4)GlcNAc(b1-4)GlcNAc
# Summary of the method: as §1
# [37] = target: GlcNAc(b1-3)Gal
# Summary of the method: as §1
# [38] = target: GlcNAc(b1-3)Gal(b1-3)GalNAc
# Summary of the method: as §1
binder,measurement,setting,value
B1,glycan array binding signal (z-score),[1],-0.138
same,glycan array binding signal (z-score),[2],-0.128
same,glycan array binding signal (z-score),[3],-0.149
same,glycan array binding signal (z-score),[4],-0.149
same,glycan array binding signal (z-score),[5],-0.118
same,glycan array binding signal (z-score),[6],-0.14
same,glycan array binding signal (z-score),[7],-0.151
same,glycan array binding signal (z-score),[8],-0.127
same,glycan array binding signal (z-score),[9],-0.089
same,glycan array binding signal (z-score),[10],-0.152
same,glycan array binding signal (z-score),[11],-0.037
same,glycan array binding signal (z-score),[12],-0.079
same,glycan array binding signal (z-score),[13],-0.121
same,glycan array binding signal (z-score),[14],-0.149
same,glycan array binding signal (z-score),[15],-0.138
same,glycan array binding signal (z-score),[16],-0.105
same,glycan array binding signal (z-score),[17],-0.121
same,glycan array binding signal (z-score),[18],-0.148
same,glycan array binding signal (z-score),[19],-0.146
same,glycan array binding signal (z-score),[20],-0.057
same,glycan array binding signal (z-score),[21],-0.149
same,glycan array binding signal (z-score),[22],-0.13
same,glycan array binding signal (z-score),[23],-0.113
same,glycan array binding signal (z-score),[24],-0.145
same,glycan array binding signal (z-score),[25],-0.143
same,glycan array binding signal (z-score),[26],-0.157
same,glycan array binding signal (z-score),[27],-0.155
same,glycan array binding signal (z-score),[28],-0.151
same,glycan array binding signal (z-score),[29],-0.145
same,glycan array binding signal (z-score),[30],-0.146
same,glycan array binding signal (z-score),[31],-0.132
same,glycan array binding signal (z-score),[32],-0.131
same,glycan array binding signal (z-score),[33],-0.139
same,glycan array binding signal (z-score),[34],-0.143
same,glycan array binding signal (z-score),[35],-0.121
same,glycan array binding signal (z-score),[36],0.879
same,glycan array binding signal (z-score),[37],-0.146
same,glycan array binding signal (z-score),[38],-0.145
